PubChem BioAssay AID686979 (National Center for Advancing Translational Sciences (NCATS), 2013)
About 50,000 (12%) of roughly 420,000 compounds were called active. The inconclusive results got no clear call from the source; some entries with a clear call stand among them for comparison. Calls come from the whole dose curve; as a rule, active = well fitted inhibition curve with a large enough effect; inconclusive = small, poorly fitted or top-dose-only effect; inactive = flat fitted curve, though single readings scatter. Potencies of inconclusive entries are left out as doubtful fits.

Assay: qHTS for Inhibitors of human tyrosyl-DNA phosphodiesterase 1 (TDP1): qHTS in cells in presence of CPT; note: nearly all actives have a fitted effect of over 55% in size
Conditions: chicken DT40 Tdp1-/-;hTDP1 cells + 20 nM CPT, ATP luminescence, 48 h; activity change, negative = growth inhibition: at 46.2 µM (top of the series) unless noted
How it was run: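 Chicken DT40 Tdp1-/- cells complemented with human TDP1, 400 cells/well, exposed to compounds plus 20 nM camptothecin for at least 48 h at 37 C; viability read as ATP content by CellTiter-Glo luminescence.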
% is set by controls: 0 for no effect and ±100 for the full control effect; potency is the fitted concentration of half-maximal effect; tags give direction and shape of the fitted curve.

| SMILES | Potency | activity change, negative = growth inhibition |
| --- | --- | --- |
| Cc1c(NC(=O)c2ccc(Cl)c([N+](=O)[O-])c2)cccc1-n1cnnn1 | inconclusive [inhibitor, single point] | – |
| COc1ccc(F)cc1C(=O)C1CCCN(C(=O)CCc2ccccn2)C1 (centres undefined) | active: 16.4 µM | – |
| Cc1ccc(N(CC(C)C)S(=O)(=O)c2nnc(NC(=O)c3ccco3)s2)cc1 | inconclusive [inhibitor, single point] | – |
| O=C(c1ccccc1)c1ccc(C(=O)N2CCN(c3ccccc3)CC2)cc1 | inconclusive [inhibitor, single point] | – |
| c1ccc(C2=Nc3c(ccc4ccccc34)C(c3ccncc3)=NN2)cc1 | active: 8.2 µM | – |
| COc1ccccc1NC(=O)NCc1ccco1 | inactive | – |
| COc1ccccc1NC(=O)c1cc2c(CO)cnc(C)c2oc1=Nc1ccccc1 | inconclusive [inhibitor, partial curve] | – |
| O=C(NCC1CCCO1)c1cnc(Cl)c(Cl)c1 (centres undefined) | – | inconclusive: -9.84% [inhibitor] |
| CCn1nc(C)c(CN2CCC(C(=O)Nc3cccc(-c4cccc(F)c4)c3)CC2)c1C | inconclusive [inhibitor, single point] | – |
| O=C(NCCSc1ccccn1)c1ccc(Cl)cc1Cl | inconclusive [inhibitor, single point] | – |
| O=C(CCCC(=O)N/N=C/c1ccccc1C(=O)O)N/N=C/c1ccccc1C(=O)O | inactive | – |
| O=C(COC(=O)COc1ccccc1)Nc1cccc([N+](=O)[O-])c1 | inactive | – |
| N#Cc1nc(-c2cccs2)oc1NCCCN1CCOCC1 | inactive | – |
| CC(C)Oc1ccc(C(=O)NC2(C(F)(F)F)NC(=O)N(CCCc3ccccc3)C2=O)cc1 (centres undefined) | inconclusive [inhibitor, single point] | – |
| N#C/C(=C\c1c(Cl)cccc1Cl)c1nn(-c2ccccc2)c(-n2cccc2)c1C#N | active: 25.9 µM | – |
| COC(=O)C(COC(=O)c1c(F)cccc1F)NC(=O)c1c(F)cccc1F (centres undefined) | inconclusive [inhibitor, single point] | – |
| COc1ccc(C(=O)NCCCc2nc3ccccc3n2Cc2cc(C)ccc2C)cc1OC | inconclusive [inhibitor, single point] | – |
| COc1ccccc1-n1c([S-])c(C(=O)Nc2ccccc2C(F)(F)F)[n+]2ccc(C(=O)NCCO)cc12 | – | inconclusive: -31.8% [inhibitor] |
| CCOc1ccccc1NC(=O)COC(=O)/C=C/c1ccc(OC)c(OC)c1 | inconclusive [inhibitor, single point] | – |
